Data from publication PMC2651629, “Structure of the Archaeal Pab87 Peptidase Reveals a Novel Self-Compartmentalizing Protease Family” (PLoS ONE, 2009).

Molecular target: T1, Pab87 (Pyrococcus abyssi, UniProt Q9V2D6)
T1 construct: gene pbp; model residues 1-447
T1 sequence (Q9V2D6 1-447): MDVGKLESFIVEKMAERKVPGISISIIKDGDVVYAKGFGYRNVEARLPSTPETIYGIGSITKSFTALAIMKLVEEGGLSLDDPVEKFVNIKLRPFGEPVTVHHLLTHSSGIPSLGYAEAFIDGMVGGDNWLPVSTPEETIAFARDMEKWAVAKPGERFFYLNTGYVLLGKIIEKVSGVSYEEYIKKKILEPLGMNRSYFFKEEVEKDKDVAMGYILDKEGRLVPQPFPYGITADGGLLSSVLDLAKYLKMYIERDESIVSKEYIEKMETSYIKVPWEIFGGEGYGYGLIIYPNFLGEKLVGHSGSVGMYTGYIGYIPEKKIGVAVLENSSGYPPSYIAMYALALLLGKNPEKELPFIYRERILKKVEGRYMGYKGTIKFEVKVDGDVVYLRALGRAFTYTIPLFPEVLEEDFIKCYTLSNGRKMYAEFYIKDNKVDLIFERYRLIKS
Assay: p-nitroaniline release at […] nm
Type: biochemical
Settings: 20 mM Tris pH 8.0, 40-90 °C; aminopeptidase; high Km, not determined, only kcat/Km given

SMILES: C[C@@H](N)C(=O)Nc1ccc([N+](=O)[O-])cc1 [D-Ala-p-nitroanilide]
- p-nitroaniline release at 405 nm: the enzyme shows a preference for the substrate with a D configuration
